# Data: the supplement of paper PMC8728848
# The list shows a part of the results.
# B1: PhoSpL (Pholiota squarrosa) (peptide)
# chain: APVPVTKLVCDGDTYKCTAYLDFGDGRWVAQWDTNVFHTG
# What was measured:
# Test in all cases: glycan array binding signal (z-score within array); higher = stronger binding
# Settings in all cases: glycan notation: IUPAC condensed, linker removed
# GalNAc(b1-4)GlcNAc = molecular target: GalNAc(b1-4)GlcNAc
# How it was run: (§1)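 Glycan array data were curated from 3228 arrays in the Consortium for Functional Glycomics database and kept only where the protein sequence was available. Glycan names were converted to IUPAC-condensed notation, and columns mapping to the same glycan were averaged. The binding signal is a within-array Z-score, averaged across arrays of the same protein sequence at different concentrations or buffers and across linkers. Negative Z-scores can be read as non-binding.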
# [1] = molecular target: GalNAc(b1-4)GlcNAc(b1-2)Man
# How it was run: as §1
# [2] = molecular target: GalNAc(b1-4)GlcNAc(b1-2)Man(a1-3)[GalNAc(b1-4)GlcNAc(b1-2)Man(a1-6)]Man(b1-4)GlcNAc(b1-4)GlcNAc
# How it was run: as §1
# [3] = molecular target: GalNAc(b1-4)GlcNAc(b1-3)GalNAc(b1-4)GlcNAc
# How it was run: as §1
# GalNAc(b1-4)GlcNAc6S = molecular target: GalNAc(b1-4)GlcNAc6S
# How it was run: as §1
# GalNAc(b1-6)GalNAc = molecular target: GalNAc(b1-6)GalNAc
# How it was run: as §1
# GalNAc3S(b1-4)GlcNAc = molecular target: GalNAc3S(b1-4)GlcNAc
# How it was run: as §1
# GalNAc3S(b1-4)GlcNAc3S = molecular target: GalNAc3S(b1-4)GlcNAc3S
# How it was run: as §1
# [4] = molecular target: GalNAc3S(b1-4)[Fuc(a1-3)]GlcNAc
# How it was run: as §1
# GalNAc4S6S(b1-4)GlcNAc = molecular target: GalNAc4S6S(b1-4)GlcNAc
# How it was run: as §1
# GalNAc6S(b1-4)GlcNAc = molecular target: GalNAc6S(b1-4)GlcNAc
# How it was run: as §1
# Glc(a1-4)Glc = molecular target: Glc(a1-4)Glc
# How it was run: as §1
# [5] = molecular target: Glc(a1-4)Glc(a1-4)Glc(a1-4)Glc
# How it was run: as §1
# Glc(a1-6)Glc(a1-6)Glc = molecular target: Glc(a1-6)Glc(a1-6)Glc
# How it was run: as §1
# [6] = molecular target: Glc(a1-6)Glc(a1-6)Glc(a1-6)Glc
# How it was run: as §1
# Glc(b1-4)Glc = molecular target: Glc(b1-4)Glc
# How it was run: as §1
# Glc(b1-6)Glc = molecular target: Glc(b1-6)Glc
# How it was run: as §1
# GlcA(b1-3)Gal = molecular target: GlcA(b1-3)Gal
# How it was run: as §1
# GlcA(b1-3)GlcNAc = molecular target: GlcA(b1-3)GlcNAc
# How it was run: as §1
# GlcA(b1-6)Gal = molecular target: GlcA(b1-6)Gal
# How it was run: as §1
# [7] = molecular target: GlcA3S(b1-3)Gal(b1-4)GlcNAc(b1-2)Man
# How it was run: as §1
# [8] = molecular target: GlcA3S(b1-3)Gal(b1-4)GlcNAc(b1-3)Gal(b1-4)Glc
# How it was run: as §1
# [9] = molecular target: GlcNAc(a1-3)Gal(b1-4)GlcNAc
# How it was run: as §1
# [10] = molecular target: GlcNAc(a1-4)Gal(b1-3)GlcNAc
# How it was run: as §1
# [11] = molecular target: GlcNAc(a1-4)Gal(b1-4)GalNAc
# How it was run: as §1
# [12] = molecular target: GlcNAc(a1-4)Gal(b1-4)GlcNAc
# How it was run: as §1
# [13] = molecular target: GlcNAc(a1-4)Gal(b1-4)GlcNAc(b1-3)Gal(b1-4)Glc
# How it was run: as §1
# [14] = molecular target: GlcNAc(a1-4)Gal(b1-4)GlcNAc(b1-3)Gal(b1-4)GlcNAc
# How it was run: as §1
# [15] = molecular target: GlcNAc(a1-4)Gal(b1-4)GlcNAc(b1-3)Gal(b1-4)GlcNAc(b1-3)Gal(b1-4)GlcNAc
# How it was run: as §1
# [16] = molecular target: GlcNAc(a1-4)Gal(b1-4)GlcNAc(b1-3)Gal(b1-4)[Fuc(a1-3)]GlcNAc(b1-3)Gal(b1-4)[Fuc(a1-3)]GlcNAc
# How it was run: as §1
# [17] = molecular target: GlcNAc(a1-6)Gal(b1-4)GlcNAc
# How it was run: as §1
# [18] = molecular target: GlcNAc(b1-2)Gal(b1-3)GalNAc
# How it was run: as §1
# [19] = molecular target: GlcNAc(b1-2)Man(a1-3)[GlcNAc(b1-2)Man(a1-6)]Man(b1-4)GlcNAc(b1-4)GlcNAc
# How it was run: as §1
# [20] = molecular target: GlcNAc(b1-2)Man(a1-3)[GlcNAc(b1-2)Man(a1-6)]Man(b1-4)GlcNAc(b1-4)[Fuc(a1-6)]GlcNAc
# How it was run: as §1
# [21] = molecular target: GlcNAc(b1-2)Man(a1-3)[GlcNAc(b1-4)][GlcNAc(b1-2)Man(a1-6)]Man(b1-4)GlcNAc(b1-4)GlcNAc
# How it was run: as §1
# [22] = molecular target: GlcNAc(b1-2)Man(a1-3)[GlcNAc(b1-4)][GlcNAc(b1-2)Man(a1-6)]Man(b1-4)GlcNAc(b1-4)[Fuc(a1-6)]GlcNAc
# How it was run: as §1
# [23] = molecular target: GlcNAc(b1-2)[GlcNAc(b1-4)]Man(a1-3)[GlcNAc(b1-2)Man(a1-6)]Man(b1-4)GlcNAc(b1-4)GlcNAc
# How it was run: as §1
# [24] = molecular target: GlcNAc(b1-2)[GlcNAc(b1-4)]Man(a1-3)[GlcNAc(b1-4)][GlcNAc(b1-2)Man(a1-6)]Man(b1-4)GlcNAc(b1-4)GlcNAc
# How it was run: as §1
# [25] = molecular target: GlcNAc(b1-2)[GlcNAc(b1-4)]Man(a1-3)[GlcNAc(b1-4)][GlcNAc(b1-2)[GlcNAc(b1-6)]Man(a1-6)]Man(b1-4)GlcNAc(b1-4)GlcNAc
# How it was run: as §1
# [26] = molecular target: GlcNAc(b1-2)[GlcNAc(b1-4)]Man(a1-3)[GlcNAc(b1-4)][GlcNAc(b1-2)[GlcNAc(b1-6)]Man(a1-6)]Man(b1-4)GlcNAc(b1-4)[Fuc(a1-6)]GlcNAc
# How it was run: as §1
# [27] = molecular target: GlcNAc(b1-2)[GlcNAc(b1-6)]Man(a1-6)[GlcNAc(b1-2)Man(a1-3)]Man(b1-4)GlcNAc(b1-4)GlcNAc
# How it was run: as §1
# [28] = molecular target: GlcNAc(b1-2)[GlcNAc(b1-6)]Man(a1-6)[GlcNAc(b1-2)Man(a1-3)]Man(b1-4)GlcNAc(b1-4)[Fuc(a1-6)]GlcNAc
# How it was run: as §1
# [29] = molecular target: GlcNAc(b1-2)[GlcNAc(b1-6)]Man(a1-6)[GlcNAc(b1-4)][GlcNAc(b1-2)Man(a1-3)]Man(b1-4)GlcNAc(b1-4)GlcNAc
# How it was run: as §1
# GlcNAc(b1-3)Fuc = molecular target: GlcNAc(b1-3)Fuc
# How it was run: as §1
# GlcNAc(b1-3)Gal = molecular target: GlcNAc(b1-3)Gal
# How it was run: as §1
binder,measurement,setting,value
B1,glycan array binding signal (z-score),GalNAc(b1-4)GlcNAc,-0.203
same,glycan array binding signal (z-score),[1],-0.272
same,glycan array binding signal (z-score),[2],1.41
same,glycan array binding signal (z-score),[3],-0.043
same,glycan array binding signal (z-score),GalNAc(b1-4)GlcNAc6S,0.542
same,glycan array binding signal (z-score),GalNAc(b1-6)GalNAc,-0.175
same,glycan array binding signal (z-score),GalNAc3S(b1-4)GlcNAc,-0.197
same,glycan array binding signal (z-score),GalNAc3S(b1-4)GlcNAc3S,-0.287
same,glycan array binding signal (z-score),[4],-0.027
same,glycan array binding signal (z-score),GalNAc4S6S(b1-4)GlcNAc,0.039
same,glycan array binding signal (z-score),GalNAc6S(b1-4)GlcNAc,0.332
same,glycan array binding signal (z-score),Glc(a1-4)Glc,0.172
same,glycan array binding signal (z-score),[5],-0.783
same,glycan array binding signal (z-score),Glc(a1-6)Glc(a1-6)Glc,0.306
same,glycan array binding signal (z-score),[6],0.27
same,glycan array binding signal (z-score),Glc(b1-4)Glc,0.154
same,glycan array binding signal (z-score),Glc(b1-6)Glc,-0.373
same,glycan array binding signal (z-score),GlcA(b1-3)Gal,-0.094
same,glycan array binding signal (z-score),GlcA(b1-3)GlcNAc,-0.562
same,glycan array binding signal (z-score),GlcA(b1-6)Gal,0.147
same,glycan array binding signal (z-score),[7],-0.16
same,glycan array binding signal (z-score),[8],-0.416
same,glycan array binding signal (z-score),[9],-0.459
same,glycan array binding signal (z-score),[10],-0.307
same,glycan array binding signal (z-score),[11],0.004
same,glycan array binding signal (z-score),[12],-1.04
same,glycan array binding signal (z-score),[13],-0.996
same,glycan array binding signal (z-score),[14],-0.245
same,glycan array binding signal (z-score),[15],-0.567
same,glycan array binding signal (z-score),[16],0.068
same,glycan array binding signal (z-score),[17],-0.158
same,glycan array binding signal (z-score),[18],0.026
same,glycan array binding signal (z-score),[19],-0.238
same,glycan array binding signal (z-score),[20],4.77
same,glycan array binding signal (z-score),[21],-0.516
same,glycan array binding signal (z-score),[22],0.877
same,glycan array binding signal (z-score),[23],-0.235
same,glycan array binding signal (z-score),[24],-0.113
same,glycan array binding signal (z-score),[25],-0.367
same,glycan array binding signal (z-score),[26],0.301
same,glycan array binding signal (z-score),[27],-0.309
same,glycan array binding signal (z-score),[28],4.35
same,glycan array binding signal (z-score),[29],-0.268
same,glycan array binding signal (z-score),GlcNAc(b1-3)Fuc,-0.421
same,glycan array binding signal (z-score),GlcNAc(b1-3)Gal,-0.377
